# Reference: the supplement of paper PMC8728848
# The other results are listed elsewhere or left out.
# B1: AMA (Arum maculatun) (protein)
# chain: MAKLLLLLLLPAIVGLAVPRSAAAVGSNYMLSGETLNTDGRLTNGELTLIMQVDCNLVLYHGGWQSNTANNGRDCKLTLTDFGELVIKSGTGSTVWSSGSKQSMKGNYAAVVHPEGRLVIYGPSVFKINPSGAGLNGLPLRNIPLTNNMLFSGQVLYGDGTLSARNHKLVMQGDCNMVLYGGKYGWQSNTHGNGKYCFAMLTHKGELVIRDDDFKSVWSSKSSSKQGDYVFILQDDSLAIIYGPAVFSTGSKKMISMVTN
# Experiments:
# Assay in all cases: glycan array binding signal (z-score within array); higher = stronger binding
# Conditions in all cases: glycan notation: IUPAC condensed, linker removed
# [1] = target: Neu5Ac(a2-3)[GalNAc(b1-4)]Gal(b1-4)Glc
# In short: (§1)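 Negative Z-scores can be read as non-binding. The Z-score is calculated within each array and then averaged across arrays of one protein sequence at different concentrations or buffers and across linkers. Arrays, 3228 in all, were curated from the Consortium for Functional Glycomics database and kept only where the protein sequence was available.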
# [2] = target: Neu5Ac(a2-3)[GalNAc(b1-4)]Gal(b1-4)GlcNAc
# In short: as §1
# [3] = target: Neu5Ac(a2-3)[GalNAc(b1-4)]Gal(b1-4)GlcNAc(b1-3)GalNAc
# In short: as §1
# [4] = target: Neu5Ac(a2-3)[Neu5Ac(a2-6)]GalNAc
# In short: as §1
# Neu5Ac(a2-6)Gal = target: Neu5Ac(a2-6)Gal
# In short: as §1
# [5] = target: Neu5Ac(a2-6)Gal(b1-3)GlcNAc(b1-3)[Gal(b1-4)GlcNAc(b1-6)]Gal(b1-4)Glc
# In short: as §1
# Neu5Ac(a2-6)Gal(b1-4)Glc = target: Neu5Ac(a2-6)Gal(b1-4)Glc
# In short: as §1
# [6] = target: Neu5Ac(a2-6)Gal(b1-4)GlcNAc
# In short: as §1
# [7] = target: Neu5Ac(a2-6)Gal(b1-4)GlcNAc(b1-2)Man
# In short: as §1
# [8] = target: Neu5Ac(a2-6)Gal(b1-4)GlcNAc(b1-2)Man(a1-3)Man(b1-4)GlcNAc(b1-4)GlcNAc
# In short: as §1
# [9] = target: Neu5Ac(a2-6)Gal(b1-4)GlcNAc(b1-2)Man(a1-3)[Gal(b1-4)GlcNAc(b1-2)Man(a1-6)]Man(b1-4)GlcNAc(b1-4)GlcNAc
# In short: as §1
# [10] = target: Neu5Ac(a2-6)Gal(b1-4)GlcNAc(b1-2)Man(a1-3)[GlcNAc(b1-2)Man(a1-6)]Man(b1-4)GlcNAc(b1-4)GlcNAc
# In short: as §1
# [11] = target: Neu5Ac(a2-6)Gal(b1-4)GlcNAc(b1-2)Man(a1-3)[GlcNAc(b1-4)][Neu5Ac(a2-6)Gal(b1-4)GlcNAc(b1-2)Man(a1-6)]Man(b1-4)GlcNAc(b1-4)GlcNAc
# In short: as §1
# [12] = target: Neu5Ac(a2-6)Gal(b1-4)GlcNAc(b1-2)Man(a1-3)[Man(a1-6)]Man(b1-4)GlcNAc(b1-4)GlcNAc
# In short: as §1
# [13] = target: Neu5Ac(a2-6)Gal(b1-4)GlcNAc(b1-2)Man(a1-3)[Neu5Ac(a2-3)Gal(b1-4)GlcNAc(b1-2)Man(a1-6)]Man(b1-4)GlcNAc(b1-4)GlcNAc
# In short: as §1
# [14] = target: Neu5Ac(a2-6)Gal(b1-4)GlcNAc(b1-2)Man(a1-3)[Neu5Ac(a2-6)Gal(b1-4)GlcNAc(b1-2)Man(a1-6)]Man(b1-4)GlcNAc(b1-4)GlcNAc
# In short: as §1
# [15] = target: Neu5Ac(a2-6)Gal(b1-4)GlcNAc(b1-2)Man(a1-3)[Neu5Ac(a2-6)Gal(b1-4)GlcNAc(b1-2)Man(a1-6)]Man(b1-4)GlcNAc(b1-4)[Fuc(a1-6)]GlcNAc
# In short: as §1
# [16] = target: Neu5Ac(a2-6)Gal(b1-4)GlcNAc(b1-2)Man(a1-6)Man(b1-4)GlcNAc(b1-4)GlcNAc
# In short: as §1
# [17] = target: Neu5Ac(a2-6)Gal(b1-4)GlcNAc(b1-2)Man(a1-6)[Gal(b1-4)GlcNAc(b1-2)Man(a1-3)]Man(b1-4)GlcNAc(b1-4)GlcNAc
# In short: as §1
# [18] = target: Neu5Ac(a2-6)Gal(b1-4)GlcNAc(b1-2)Man(a1-6)[GlcNAc(b1-2)Man(a1-3)]Man(b1-4)GlcNAc(b1-4)GlcNAc
# In short: as §1
# [19] = target: Neu5Ac(a2-6)Gal(b1-4)GlcNAc(b1-2)Man(a1-6)[Man(a1-3)]Man(b1-4)GlcNAc(b1-4)GlcNAc
# In short: as §1
# [20] = target: Neu5Ac(a2-6)Gal(b1-4)GlcNAc(b1-2)[Neu5Ac(a2-6)Gal(b1-4)GlcNAc(b1-4)]Man(a1-3)[GlcNAc(b1-4)][Neu5Ac(a2-6)Gal(b1-4)GlcNAc(b1-2)[Neu5Ac(a2-6)Gal(b1-4)GlcNAc(b1-6)]Man(a1-6)]Man(b1-4)GlcNAc(b1-4)GlcNAc
# In short: as §1
# [21] = target: Neu5Ac(a2-6)Gal(b1-4)GlcNAc(b1-2)[Neu5Ac(a2-6)Gal(b1-4)GlcNAc(b1-4)]Man(a1-3)[GlcNAc(b1-4)][Neu5Ac(a2-6)Gal(b1-4)GlcNAc(b1-4)Man(a1-6)]Man(b1-4)GlcNAc(b1-4)GlcNAc
# In short: as §1
# [22] = target: Neu5Ac(a2-6)Gal(b1-4)GlcNAc(b1-2)[Neu5Ac(a2-6)Gal(b1-4)GlcNAc(b1-6)]Man(a1-6)[Neu5Ac(a2-6)Gal(b1-4)GlcNAc(b1-2)Man(a1-3)][GlcNAc(b1-4)]Man(b1-4)GlcNAc(b1-4)GlcNAc
# In short: as §1
# [23] = target: Neu5Ac(a2-6)Gal(b1-4)GlcNAc(b1-3)Gal(b1-3)GlcNAc
# In short: as §1
# [24] = target: Neu5Ac(a2-6)Gal(b1-4)GlcNAc(b1-3)Gal(b1-4)GlcNAc
# In short: as §1
# [25] = target: Neu5Ac(a2-6)Gal(b1-4)GlcNAc(b1-3)Gal(b1-4)GlcNAc(b1-2)Man(a1-3)[Neu5Ac(a2-6)Gal(b1-4)GlcNAc(b1-3)Gal(b1-4)GlcNAc(b1-2)Man(a1-6)]GalNAc
# In short: as §1
# [26] = target: Neu5Ac(a2-6)Gal(b1-4)GlcNAc(b1-3)Gal(b1-4)GlcNAc(b1-3)Gal(b1-4)GlcNAc
# In short: as §1
# [27] = target: Neu5Ac(a2-6)Gal(b1-4)GlcNAc(b1-3)Gal(b1-4)GlcNAc(b1-3)Gal(b1-4)GlcNAc(b1-2)Man(a1-3)[Neu5Ac(a2-6)Gal(b1-4)GlcNAc(b1-3)Gal(b1-4)GlcNAc(b1-3)Gal(b1-4)GlcNAc(b1-2)Man(a1-6)]GalNAc
# In short: as §1
# [28] = target: Neu5Ac(a2-6)Gal(b1-4)GlcNAc(b1-3)Gal(b1-4)GlcNAc(b1-3)GalNAc
# In short: as §1
# [29] = target: Neu5Ac(a2-6)Gal(b1-4)GlcNAc(b1-3)Gal(b1-4)GlcNAc(b1-3)[Neu5Ac(a2-6)Gal(b1-4)GlcNAc(b1-3)Gal(b1-4)GlcNAc(b1-6)]GalNAc
# In short: as §1
# [30] = target: Neu5Ac(a2-6)Gal(b1-4)GlcNAc(b1-3)Gal(b1-4)GlcNAc(b1-6)[Gal(b1-3)]GalNAc
# In short: as §1
# [31] = target: Neu5Ac(a2-6)Gal(b1-4)GlcNAc(b1-3)Gal(b1-4)[Fuc(a1-3)]GlcNAc(b1-3)Gal(b1-4)[Fuc(a1-3)]GlcNAc
# In short: as §1
# [32] = target: Neu5Ac(a2-6)Gal(b1-4)GlcNAc(b1-3)GalNAc
# In short: as §1
# [33] = target: Neu5Ac(a2-6)Gal(b1-4)GlcNAc(b1-3)[Neu5Ac(a2-6)Gal(b1-4)GlcNAc(b1-6)]GalNAc
# In short: as §1
# [34] = target: Neu5Ac(a2-6)Gal(b1-4)GlcNAc(b1-6)GalNAc
# In short: as §1
# [35] = target: Neu5Ac(a2-6)Gal(b1-4)GlcNAc(b1-6)[Gal(b1-3)GlcNAc(b1-3)]Gal(b1-4)Glc
# In short: as §1
# [36] = target: Neu5Ac(a2-6)Gal(b1-4)GlcNAc(b1-6)[Gal(b1-3)]GalNAc
# In short: as §1
binder,measurement,setting,value
B1,glycan array binding signal (z-score),[1],-0.219
same,glycan array binding signal (z-score),[2],-0.214
same,glycan array binding signal (z-score),[3],-0.21
same,glycan array binding signal (z-score),[4],-0.221
same,glycan array binding signal (z-score),Neu5Ac(a2-6)Gal,-0.215
same,glycan array binding signal (z-score),[5],-0.214
same,glycan array binding signal (z-score),Neu5Ac(a2-6)Gal(b1-4)Glc,-0.208
same,glycan array binding signal (z-score),[6],-0.211
same,glycan array binding signal (z-score),[7],-0.212
same,glycan array binding signal (z-score),[8],-0.202
same,glycan array binding signal (z-score),[9],0.94
same,glycan array binding signal (z-score),[10],0.845
same,glycan array binding signal (z-score),[11],-0.218
same,glycan array binding signal (z-score),[12],-0.063
same,glycan array binding signal (z-score),[13],0.215
same,glycan array binding signal (z-score),[14],0.436
same,glycan array binding signal (z-score),[15],0.863
same,glycan array binding signal (z-score),[16],-0.21
same,glycan array binding signal (z-score),[17],1.15
same,glycan array binding signal (z-score),[18],1.33
same,glycan array binding signal (z-score),[19],0.252
same,glycan array binding signal (z-score),[20],-0.219
same,glycan array binding signal (z-score),[21],-0.216
same,glycan array binding signal (z-score),[22],-0.214
same,glycan array binding signal (z-score),[23],-0.224
same,glycan array binding signal (z-score),[24],-0.218
same,glycan array binding signal (z-score),[25],-0.154
same,glycan array binding signal (z-score),[26],-0.221
same,glycan array binding signal (z-score),[27],-0.029
same,glycan array binding signal (z-score),[28],-0.212
same,glycan array binding signal (z-score),[29],-0.106
same,glycan array binding signal (z-score),[30],-0.182
same,glycan array binding signal (z-score),[31],-0.205
same,glycan array binding signal (z-score),[32],-0.22
same,glycan array binding signal (z-score),[33],-0.204
same,glycan array binding signal (z-score),[34],-0.214
same,glycan array binding signal (z-score),[35],-0.216
same,glycan array binding signal (z-score),[36],-0.205
